Assay results: the supplement of paper PMC8728848
This is one part of the list.

What was measured:
Experiment in all cases: glycan array binding signal (z-score within array); higher = stronger binding
Details in all cases: glycan notation: IUPAC condensed, linker removed; mutation: D325N
[1] = biological target: Fuc(a1-3)[Gal(b1-4)]GlcNAc(b1-2)Man(a1-6)[Gal(b1-4)GlcNAc(b1-2)Man(a1-3)]Man(b1-4)GlcNAc(b1-4)GlcNAc
Outline: (§1)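 Columns mapping to the same glycan were averaged after glycan names were converted to IUPAC-condensed notation. The data come from 3228 arrays in the Consortium for Functional Glycomics database, limited to those with an available protein sequence. Binding is reported as a within-array Z-score averaged across arrays of one protein sequence and across linkers.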

[2] = biological target: Fuc(a1-3)[Gal(b1-4)]GlcNAc(b1-3)Gal(b1-3)[Fuc(a1-4)]GlcNAc
Outline: as §1

[3] = biological target: Fuc(a1-3)[Gal(b1-4)]GlcNAc(b1-4)Gal(b1-4)[Fuc(a1-3)]GlcNAc
Outline: as §1

[4] = biological target: Fuc(a1-3)[Gal(b1-4)]GlcNAc(b1-4)Gal(b1-4)[Fuc(a1-3)]GlcNAc(b1-4)Gal(b1-4)[Fuc(a1-3)]GlcNAc
Outline: as §1

[5] = biological target: Fuc(a1-3)[Gal(b1-4)]GlcNAc6S
Outline: as §1

[6] = biological target: Fuc(a1-3)[Gal3S(b1-4)]Glc6S
Outline: as §1

[7] = biological target: Fuc(a1-3)[Gal3S(b1-4)]GlcNAc
Outline: as §1

[8] = biological target: Fuc(a1-3)[Gal3S(b1-4)]GlcNAc6S
Outline: as §1

[9] = biological target: Fuc(a1-3)[GalNAc(b1-4)]GlcNAc
Outline: as §1

Fuc(a1-4)GlcNAc = biological target: Fuc(a1-4)GlcNAc
Outline: as §1

Fuc(b1-3)GlcNAc = biological target: Fuc(b1-3)GlcNAc
Outline: as §1

Gal(a1-2)Gal = biological target: Gal(a1-2)Gal
Outline: as §1

Gal(a1-3)Gal = biological target: Gal(a1-3)Gal
Outline: as §1

Gal(a1-3)Gal(b1-3)GlcNAc = biological target: Gal(a1-3)Gal(b1-3)GlcNAc
Outline: as §1

Gal(a1-3)Gal(b1-4)Glc = biological target: Gal(a1-3)Gal(b1-4)Glc
Outline: as §1

Gal(a1-3)Gal(b1-4)GlcNAc = biological target: Gal(a1-3)Gal(b1-4)GlcNAc
Outline: as §1

[10] = biological target: Gal(a1-3)Gal(b1-4)[Fuc(a1-3)]GlcNAc
Outline: as §1

Gal(a1-3)GalNAc = biological target: Gal(a1-3)GalNAc
Outline: as §1

[11] = biological target: Gal(a1-3)[Gal(a1-4)]Gal(b1-4)GlcNAc
Outline: as §1

Gal(a1-4)Gal(b1-4)Glc = biological target: Gal(a1-4)Gal(b1-4)Glc
Outline: as §1

Gal(a1-4)Gal(b1-4)GlcNAc = biological target: Gal(a1-4)Gal(b1-4)GlcNAc
Outline: as §1

Gal(a1-4)GlcNAc = biological target: Gal(a1-4)GlcNAc
Outline: as §1

Gal(a1-6)Glc = biological target: Gal(a1-6)Glc
Outline: as §1

Gal(b1-2)Gal = biological target: Gal(b1-2)Gal
Outline: as §1

Gal(b1-3)Gal = biological target: Gal(b1-3)Gal
Outline: as §1

Gal(b1-3)Gal(b1-4)GlcNAc = biological target: Gal(b1-3)Gal(b1-4)GlcNAc
Outline: as §1

Gal(b1-3)GalNAc = biological target: Gal(b1-3)GalNAc
Outline: as §1

[12] = biological target: Gal(b1-3)GalNAc(b1-3)Gal(a1-4)Gal(b1-4)Glc
Outline: as §1

[13] = biological target: Gal(b1-3)GalNAc(b1-4)Gal(b1-4)Glc
Outline: as §1

[14] = biological target: Gal(b1-3)GalNAc(b1-4)[Neu5Ac(a2-3)]Gal(b1-4)Glc
Outline: as §1

Gal(b1-3)GlcNAc = biological target: Gal(b1-3)GlcNAc
Outline: as §1

[15] = biological target: Gal(b1-3)GlcNAc(b1-2)Man(a1-3)[Gal(b1-3)GlcNAc(b1-2)Man(a1-6)]Man(b1-4)GlcNAc(b1-4)GlcNAc
Outline: as §1

[16] = biological target: Gal(b1-3)GlcNAc(b1-3)Gal(b1-3)GlcNAc
Outline: as §1

[17] = biological target: Gal(b1-3)GlcNAc(b1-3)Gal(b1-4)Glc
Outline: as §1

[18] = biological target: Gal(b1-3)GlcNAc(b1-3)Gal(b1-4)GlcNAc
Outline: as §1

[19] = biological target: Gal(b1-3)[Fuc(a1-4)]GlcNAc
Outline: as §1

[20] = biological target: Gal(b1-3)[Fuc(a1-4)]GlcNAc(b1-3)Gal(b1-3)[Fuc(a1-4)]GlcNAc
Outline: as §1

[21] = biological target: Gal(b1-3)[Fuc(a1-4)]GlcNAc(b1-3)Gal(b1-4)GlcNAc
Outline: as §1

B1: Surfactant Protein D (Human); Neck + Carbohydrate Recognition Domain (NCRD) (Homo sapiens) (protein)
chain: MLLFLLSALVLLTQPLGYLEAEMKTYSHRTMPSACTLVMCSSVESGLPGRDRDGREGPRGEKGDPGLPGAAGQAGMPGQAGPVGPKGDNGSVGEPGPKGDTGPSGPPGPPGVPGPAGREGALGKQGNIGPQGKPGPKGEAGPKGEVGAPGMQGSAGARGLAGPKGERGVPGERGVPGNTGAAGSAGAMGPQGSPGARGPPGLKGDKGIPGDKGAKGESGLPDVASLRQQVEALQGQVQHLQAAFSQYKKVELFPNGQSVGEKIFKTAQFVKPFTEAQLLCTQAGGQLASPRSAAENAALQQLVVAKNEAAFLSMTDSKTEGKFTYPTGESLVYSNWAPGEPNDNGGSEDCVEIFTNGKWNDRACGEKRLVVCEF
In the case of B1, the “glycan array binding signal (z-score)” value [1] is reported as -0.133, the “glycan array binding signal (z-score)” value [2] is reported as -0.147 and the “glycan array binding signal (z-score)” value [3] is reported as -0.114. For the same binder, the “glycan array binding signal (z-score)” value [4] was -0.096, the “glycan array binding signal (z-score)” value [5] was -0.142 and the “glycan array binding signal (z-score)” value [6] was -0.117. The “glycan array binding signal (z-score)” value [7] was -0.097, the “glycan array binding signal (z-score)” value [8] was -0.146 and the “glycan array binding signal (z-score)” value [9] was -0.128. For the same binder, the “glycan array binding signal (z-score)” value (Fuc(a1-4)GlcNAc) was -0.136, the “glycan array binding signal (z-score)” value (Fuc(b1-3)GlcNAc) was -0.144 and the “glycan array binding signal (z-score)” value (Gal(a1-2)Gal) was -0.109. For the same binder, the “glycan array binding signal (z-score)” value (Gal(a1-3)Gal) was -0.145, the “glycan array binding signal (z-score)” value (Gal(a1-3)Gal(b1-3)GlcNAc) was -0.169 and the “glycan array binding signal (z-score)” value (Gal(a1-3)Gal(b1-4)Glc) was -0.123. For the same binder, the “glycan array binding signal (z-score)” value (Gal(a1-3)Gal(b1-4)GlcNAc) was -0.142, the “glycan array binding signal (z-score)” value [10] was -0.123 and the “glycan array binding signal (z-score)” value (Gal(a1-3)GalNAc) was -0.111. The “glycan array binding signal (z-score)” value [11] was -0.155, the “glycan array binding signal (z-score)” value (Gal(a1-4)Gal(b1-4)Glc) was -0.147 and the “glycan array binding signal (z-score)” value (Gal(a1-4)Gal(b1-4)GlcNAc) was -0.144. The “glycan array binding signal (z-score)” value (Gal(a1-4)GlcNAc) was -0.096, the “glycan array binding signal (z-score)” value (Gal(a1-6)Glc) was -0.133 and the “glycan array binding signal (z-score)” value (Gal(b1-2)Gal) was -0.147. For the same binder, the “glycan array binding signal (z-score)” value (Gal(b1-3)Gal) was -0.159, the “glycan array binding signal (z-score)” value (Gal(b1-3)Gal(b1-4)GlcNAc) was -0.126 and the “glycan array binding signal (z-score)” value (Gal(b1-3)GalNAc) was -0.139. The “glycan array binding signal (z-score)” value [12] was -0.128, the “glycan array binding signal (z-score)” value [13] was -0.152 and the “glycan array binding signal (z-score)” value [14] was -0.152. For the same binder, the “glycan array binding signal (z-score)” value (Gal(b1-3)GlcNAc) was -0.13, the “glycan array binding signal (z-score)” value [15] was -0.141 and the “glycan array binding signal (z-score)” value [16] was -0.128. For the same binder, the “glycan array binding signal (z-score)” value [17] was -0.146, the “glycan array binding signal (z-score)” value [18] was -0.112 and the “glycan array binding signal (z-score)” value [19] was -0.124. For the same binder, the “glycan array binding signal (z-score)” value [20] was -0.15 and the “glycan array binding signal (z-score)” value [21] was -0.131.
